Here are results for 10 molecules from the antibiotic and cytotoxicity screens of Wong et al. (2023).

The list shows a part of the results.

For the assay, the system named is HSkMC (human skeletal muscle cells). Description: cytotoxicity call (relative viability < 0.9). The note with it: 10 µM.
As to `C[C@H](CO)N1C[C@H](C)[C@H](CN(C)C(=O)NC2CCCCC2)Oc2c(NC(=O)c3cnccn3)cccc2C1=O`, the cytotoxicity call is “inactive”.

In the case of `C[C@H]1CCCCO[C@H](CN(C)C(=O)Cc2ccccc2)[C@@H](C)CN([C@@H](C)CO)C(=O)c2cc(NC(=O)Cc3ccccc3)ccc2O1`, the cytotoxicity call was “inactive”.

As for `COc1ccc(NC(=O)Nc2ccc3c(c2)CC(=O)N([C@@H](C)CO)C[C@H](C)[C@@H](CN(C)Cc2ccc(Oc4ccccc4)cc2)O3)cc1`, the cytotoxicity call is “inactive”.

Consider `COc1ccc2c(O[C@H]3CCCC[C@@H]3OC)nccc2c1-n1ccnc1-c1c[nH]c2c(N)c(F)cc(C#N)c12`, for which the cytotoxicity call was “inactive”.

Regarding `C[C@H]1CN([C@@H](C)CO)C(=O)c2cccc(NC(=O)C3CC3)c2O[C@H]1CN(C)S(=O)(=O)c1cn(C)cn1`, the cytotoxicity call was “inactive”.

Take `Cc1ccc(N2NC(=O)/C(=N/O)C2=O)cc1C`: the cytotoxicity call was “inactive”.

`CCCNC(=O)N(C)C[C@H]1Oc2ncc(-c3ccc(C(=O)N(C)C)cc3)cc2C(=O)N([C@H](C)CO)C[C@@H]1C`: the cytotoxicity call was “inactive”.

Consider `CC(=O)OCC(=O)O[C@@H]1[C@H]2[C@@H](OC(=O)c3ccccc3)[C@@H](C)C[C@]2(O)[C@H](OC(C)=O)[C@@]2(C)[C@H](OC(C)=O)[C@]1(OC(C)=O)C[C@H]1C(=O)C(C)(C)C[C@@H]12`, for which the cytotoxicity call was “inactive”.

In the case of `O=C(Nc1ccc(C(F)(F)F)cc1)Nc1ccc2c(c1)[C@H]1C[C@@H](CC(=O)N3CCc4ccccc4C3)O[C@H](CO)[C@H]1O2`, the cytotoxicity call is “inactive”.

With `C[C@@H]1CN([C@@H](C)CO)C(=O)c2cc(Br)cnc2O[C@H]1CN(C)Cc1ccc2c(c1)OCO2`, the cytotoxicity call is “inactive”.
